Results reported in the supplement of paper PMC7826260.
The other results are listed elsewhere or left out. Each Rep nickase domain was tested in vitro on the same pool of single strands for 1 h at 37 °C with 3 µM enzyme; only the middle of the 90-letter strands is printed. Uncut reads are compared with the no-enzyme pool on a log2 scale; more negative means more cut, near 0 not cut, and no call is made. Shares of all reads are compared; values above 0 arise when much of the pool is cut.

Key:
Assay in all cases: uncleaved DNA left, log2 of reads against the no-enzyme library (log2 ratio); higher = less cleavage (more negative = more Rep cleavage of the k-mer); sequences stand for … in CTCGTCCG…ACCGGAGA
[1] = test system: T1, Rep nickase domain of Muscovy duck circovirus
T1 sequence (residues 1-111, tag not shown): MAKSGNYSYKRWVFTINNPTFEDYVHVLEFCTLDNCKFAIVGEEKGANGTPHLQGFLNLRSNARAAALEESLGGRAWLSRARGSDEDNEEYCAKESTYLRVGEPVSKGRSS
Description: (§1)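 A pool of 90-nt single-stranded DNAs with seven random bases just before the constant AC of the nick site (name = the seven bases) was cut by 3 µM recombinant His6-SUMO-tagged Rep nickase domain (300 nM DNA, 50 mM HEPES pH 8.0, 50 mM NaCl, 1 mM MnCl2, 1 h, 37 °C, three replicates). Uncut DNA was amplified and sequenced.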

[2] = test system: T2, Rep nickase domain of banana bunchy top virus
T2 sequence (residues 1-94, tag not shown): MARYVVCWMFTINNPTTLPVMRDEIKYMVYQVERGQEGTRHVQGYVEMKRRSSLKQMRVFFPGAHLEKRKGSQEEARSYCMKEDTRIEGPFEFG
Description: as §1

[3] = test system: T3, Rep nickase domain of cabbage leaf curl virus
T3 sequence (residues 1-116, tag not shown): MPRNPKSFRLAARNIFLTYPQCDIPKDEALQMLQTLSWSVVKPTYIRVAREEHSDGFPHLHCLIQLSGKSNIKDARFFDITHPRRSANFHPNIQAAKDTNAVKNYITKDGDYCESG
Description: as §1

[4] = test system: T4, Rep nickase domain of chickpea chlorotic dwarf virus
T4 sequence (residues 1-124, tag not shown): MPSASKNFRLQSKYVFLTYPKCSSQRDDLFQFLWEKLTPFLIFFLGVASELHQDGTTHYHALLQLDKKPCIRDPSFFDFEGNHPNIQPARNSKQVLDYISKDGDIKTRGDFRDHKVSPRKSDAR
Description: as §1

[5] = test system: T5, Rep nickase domain of faba bean necrotic yellows virus
T5 sequence (residues 1-98, tag not shown): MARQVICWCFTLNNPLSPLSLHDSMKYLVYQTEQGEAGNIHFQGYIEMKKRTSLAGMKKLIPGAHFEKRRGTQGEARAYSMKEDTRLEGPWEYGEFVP
Description: as §1

[6] = test system: T6, Rep nickase domain of maize striate mosaic virus
T6 sequence (residues 1-117, tag not shown): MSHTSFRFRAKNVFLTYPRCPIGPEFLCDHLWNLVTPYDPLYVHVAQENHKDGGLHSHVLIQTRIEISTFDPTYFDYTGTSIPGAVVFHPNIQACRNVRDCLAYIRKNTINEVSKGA
Description: as §1

[7] = test system: T7, Rep nickase domain of porcine circovirus 2
T7 sequence (residues 2-116, tag not shown): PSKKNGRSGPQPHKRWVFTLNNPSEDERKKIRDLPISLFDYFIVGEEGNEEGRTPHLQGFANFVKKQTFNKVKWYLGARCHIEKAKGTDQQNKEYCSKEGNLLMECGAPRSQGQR
Description: as §1

[8] = test system: T8, Rep nickase domain of tomato yellow leaf curl virus
T8 sequence (residues 1-136, tag not shown): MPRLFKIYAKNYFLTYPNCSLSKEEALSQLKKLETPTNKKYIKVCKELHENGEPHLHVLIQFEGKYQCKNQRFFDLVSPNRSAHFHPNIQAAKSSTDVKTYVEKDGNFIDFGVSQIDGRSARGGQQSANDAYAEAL
Description: as §1

[9] = test system: T9, Rep nickase domain of wheat dwarf virus
T9 sequence (residues 1-137, tag not shown): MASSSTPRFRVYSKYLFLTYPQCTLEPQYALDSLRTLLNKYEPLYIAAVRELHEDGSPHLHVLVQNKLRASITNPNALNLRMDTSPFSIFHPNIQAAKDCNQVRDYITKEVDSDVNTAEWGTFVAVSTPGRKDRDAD
Description: as §1

Row | Sequence | uncleaved DNA left (log2) [1] | uncleaved DNA left (log2) [2] | uncleaved DNA left (log2) [3] | uncleaved DNA left (log2) [4] | uncleaved DNA left (log2) [5] | uncleaved DNA left (log2) [6] | uncleaved DNA left (log2) [7] | uncleaved DNA left (log2) [8] | uncleaved DNA left (log2) [9]
1 | CCTCGAC | 0.0853 | 0.0857 | 0.0555 | -0.596 | 0.0605 | -0.589 | 0.0828 | -0.0383 | 0.12
2 | CGGACGT | 0.0254 | -0.0153 | 0.67 | 1.75 | -0.102 | 2.05 | 0.0643 | -0.043 | 0.0503
3 | TCGCTCC | -0.26 | -0.0918 | 0.198 | 0.186 | -0.172 | 0.579 | -0.0273 | -0.1 | -0.113
4 | TAAGCCC | 0.0354 | 0.0618 | -0.824 | -2.1 | 0.0416 | -0.48 | 0.131 | 0.02 | -0.341
5 | GTGCGTG | 0.0231 | 0.0238 | -0.238 | 0.0282 | 0.0121 | -0.349 | -0.0338 | 0.0807 | -0.0718
6 | TCTCTTT | 0.0931 | -0.236 | 0.065 | -2.19 | 0.102 | -0.423 | -0.455 | 0.00436 | -0.0146
7 | CCATATC | -0.0771 | -0.0138 | -0.203 | -0.292 | -0.148 | -0.953 | 0.0107 | -0.0408 | -0.0224
8 | GGGACCT | -0.162 | 0.0449 | 0.79 | 1.96 | -0.0915 | 2.24 | 0.0787 | -0.08 | 0.0468
9 | TTATTTC | -0.145 | -0.0849 | -0.0913 | -0.557 | -0.0539 | -0.869 | -0.0543 | 0.0071 | -0.022
10 | CGCTGAA | -0.0118 | -0.199 | 0.0484 | 0.378 | -0.12 | 0.731 | -0.121 | -0.0441 | -0.00815
11 | AGAGAGG | 0.0562 | -0.0357 | -0.017 | 0.57 | 0.0291 | 1.05 | 0.115 | -0.0851 | 0.0231
12 | CCGTAGA | -0.0212 | 0.0806 | 0.227 | 0.276 | 0.0156 | -0.503 | 0.0431 | 0.0706 | 0.143
13 | GTGTTTA | -0.0341 | 0.0937 | 0.317 | 0.743 | -0.0159 | 1.74 | 0.123 | 0.0617 | -0.00112
14 | TTGTGCC | 0.0219 | -0.0377 | -0.42 | -0.544 | -0.0303 | -1.2 | -0.103 | 0.0531 | -0.112
15 | GCGATGG | -0.056 | -0.118 | -0.215 | 0.566 | -0.041 | 1.22 | 0.0775 | -0.032 | -0.0275
16 | CCTTTAT | -0.268 | -0.146 | -0.0832 | -1.07 | -0.0696 | -0.692 | -1.15 | 0.127 | -0.0219
17 | AAATTCA | -0.502 | 0.00938 | -1.4 | -2.48 | 0.0109 | -1.08 | -1.47 | 0.022 | -0.369
18 | TAAGCCA | -0.117 | -0.0106 | -1.05 | -2.58 | -0.148 | -0.674 | -0.209 | -0.104 | -0.556
19 | GGGCTAT | -0.163 | 0.151 | 0.805 | 1.96 | -0.0295 | 2.2 | 0.15 | 0.0749 | 0.047
20 | ATAGAAG | 0.0372 | 0.053 | -0.689 | -0.331 | 0.106 | -1.04 | 0.247 | 0.156 | 0.0202
21 | TCCCTGC | -0.012 | -0.082 | -0.364 | -0.591 | -0.0767 | -0.97 | 0.137 | -0.0656 | -0.0235
22 | CGTAGTA | -0.0647 | -0.0644 | 0.117 | -0.41 | -0.0513 | -0.0913 | -0.164 | 0.00407 | -0.0316
23 | CTTAAAA | -0.0433 | 0.12 | -0.0122 | 0.0589 | 0.023 | -0.77 | 0.036 | -0.0399 | 0.131
24 | GCCCGAG | -0.124 | 0.155 | 0.821 | 1.76 | 0.0575 | 1.74 | 0.166 | 0.143 | 0.208
25 | TCTTAGT | -2.02 | -0.134 | -0.0619 | -0.901 | -0.0681 | -0.913 | -3.53 | 0.0439 | -0.0521
26 | CCTATAA | 0.0558 | 0.0698 | -0.165 | -0.2 | 0.0346 | -0.724 | -0.0103 | 0.029 | 0.108
27 | CCCTTGA | -0.118 | -0.0379 | -0.187 | -0.541 | -0.0573 | -1.02 | -0.117 | 0.0563 | -0.0299
28 | TATGGTC | 0.0387 | -0.069 | 0.349 | 0.204 | 0.0206 | 0.352 | 0.0519 | 0.0547 | -0.0215
29 | ACCTAAT | -1.24 | 0.0897 | 0.00263 | -0.967 | 0.0865 | -0.338 | -2.91 | 0.203 | 0.0452
30 | TTCCTTA | -0.123 | -0.171 | -0.055 | -0.906 | -0.0572 | -0.0823 | -0.201 | -0.111 | -0.122
